# Some of the results follow.
# B1: CVNH0 (Neurospora crassa), Q7S6U4 (protein)
# chain: GSHIGPYMSFHVTAEDARIEVRDNRTILFARLRREDGEWNDASYELDQIIGNNDGHFQWGGQNFTETAEDIRFHPKEGAAEQPILRARLRDCNGEFHDRDVNLTEIVENVNGEFQAKF
# Columns and labels:
# Assay in all cases: glycan array binding signal (z-score within array); higher = stronger binding
# Conditions in all cases: glycan notation: IUPAC condensed, linker removed
# [1] = target: Neu5Ac(a2-8)Neu5Ac(a2-8)Neu5Ac(a2-8)Neu5Ac(a2-3)[GalNAc(b1-4)]Gal(b1-4)Glc
# How it was run: (§1)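 Glycan array data were curated from 3228 arrays in the Consortium for Functional Glycomics database and kept only where the protein sequence was available. Glycan names were converted to IUPAC-condensed notation, and columns mapping to the same glycan were averaged. The binding signal is a within-array Z-score, averaged across arrays of the same protein sequence at different concentrations or buffers and across linkers. Negative Z-scores can be read as non-binding.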
# [2] = target: Neu5Ac9Ac(a2-6)Gal(b1-4)GlcNAc
# How it was run: as §1
# [3] = target: Neu5Gc(a2-3)Gal(b1-3)GlcNAc
# How it was run: as §1
# [4] = target: Neu5Gc(a2-3)Gal(b1-3)[Fuc(a1-4)]GlcNAc
# How it was run: as §1
# Neu5Gc(a2-3)Gal(b1-4)Glc = target: Neu5Gc(a2-3)Gal(b1-4)Glc
# How it was run: as §1
# [5] = target: Neu5Gc(a2-3)Gal(b1-4)GlcNAc
# How it was run: as §1
# [6] = target: Neu5Gc(a2-3)Gal(b1-4)[Fuc(a1-4)]GlcNAc
# How it was run: as §1
# [7] = target: Neu5Gc(a2-6)Gal(b1-4)GlcNAc
# How it was run: as §1
# Neu5Gc(a2-6)GalNAc = target: Neu5Gc(a2-6)GalNAc
# How it was run: as §1
binder,measurement,setting,value
B1,glycan array binding signal (z-score),[1],-0.44
same,glycan array binding signal (z-score),[2],-0.431
same,glycan array binding signal (z-score),[3],-0.433
same,glycan array binding signal (z-score),[4],0.164
same,glycan array binding signal (z-score),Neu5Gc(a2-3)Gal(b1-4)Glc,-0.422
same,glycan array binding signal (z-score),[5],-0.419
same,glycan array binding signal (z-score),[6],0.562
same,glycan array binding signal (z-score),[7],-0.367
same,glycan array binding signal (z-score),Neu5Gc(a2-6)GalNAc,-0.407
